Binding signal data for 42 sequences are collected here from publication PMC7819943, “Rice protein-binding microarrays: a tool to detect cis-acting elements near promoter regions in rice”.

The other results are listed elsewhere or left out.

In this assay the target is T1, OsWOX13 (Oryza sativa, UniProt Q5QMM3 1-267).
T1 sequence: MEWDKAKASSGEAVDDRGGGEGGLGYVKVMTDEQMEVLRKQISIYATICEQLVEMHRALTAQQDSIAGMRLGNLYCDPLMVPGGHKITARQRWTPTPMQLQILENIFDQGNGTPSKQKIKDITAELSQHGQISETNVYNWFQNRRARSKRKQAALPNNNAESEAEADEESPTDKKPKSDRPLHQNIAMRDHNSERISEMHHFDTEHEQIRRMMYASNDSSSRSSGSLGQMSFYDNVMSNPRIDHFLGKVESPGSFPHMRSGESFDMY
Kind of assay: protein-binding microarray (RPBM); PBS, 2% BSA, 51.3 ng/ul salmon testes DNA, 50 uM zinc acetate, 200 nM TF, 25 C, 1 h; high values mean tight binding. Particulars: protein: recombinant; tags: N-terminal polyhistidine and DsRed monomer fusion (pET32a); label: CyDye5-dUTP incorporated in the synthesized complementary strand; 3' TTTTT single-stranded linker to array surface; dsDNA, one strand shown. In short, it runs like this:
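Ni–NTA purification followed expression in E. coli BL21-CodonPlus of transcription factors fused N-terminally to a polyhistidine tag and DsRed. At 200 nM in PBS with 2% BSA, salmon testes DNA and 50 µM zinc acetate, the protein was incubated for 1 h at 25 °C with a custom Agilent array that had been primer-extended with Cy5-dUTP and blocked with 2% BSA. After washing, the array was read on an Axon 4000B scanner. The binding signal is per-feature fluorescence intensity in arbitrary units.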
With “AGCAACAATCATTCACCCAATCACCATGAAGAAGATGATCCGGAGTCACCTAGTGCAG”, the binding signal was 17100 fluorescence intensity (a.u.).
Next, “ACTGATTAGCTTAAGCCTTTAATATTCTAAATGTTTAGATCGGAGTCACCTAGTGCAG”: 37300 fluorescence intensity (a.u.).
Regarding “TTGTAATCTGTAGTGGGGATTGGTACAACTAATGGTTTTACGGAGTCACCTAGTGCAG”, the binding signal was 3240 fluorescence intensity (a.u.).
Consider “AACAATAATTGAAAACAGTATCGGATGAGCATATACAGTTCGGAGTCACCTAGTGCAG”, for which the binding signal is 30500 fluorescence intensity (a.u.).
With “TCAAGCTTCTGCAATTTAGTTGATTGATCGAATTAATCAGCGGAGTCACCTAGTGCAG” the figure was 24600 fluorescence intensity (a.u.); with “ATTATAGTTTTGTGATTAAATTGGTACTATACCTGTAGTTCGGAGTCACCTAGTGCAG”, 10600 fluorescence intensity (a.u.).
Turning to “ATATATATATATATATATATAAAGTATATATATATGTGTGCGGAGTCACCTAGTGCAG”, the binding signal was 9690 fluorescence intensity (a.u.).
On to “ATTAAACTTGATTGAGAACAAAACGAAAACGTTTTATAATCGGAGTCACCTAGTGCAG”, for which the binding signal was 17000 fluorescence intensity (a.u.).
Next, “TCGTTTGATTAACCAGGAATTCCTCGTCTGCCTTAATGGTCGGAGTCACCTAGTGCAG”: 17500 fluorescence intensity (a.u.).
As to “GTACGGTTATAATTTTGTAAAATTTTAGTGGCACGGTTATCGGAGTCACCTAGTGCAG”, the binding signal was 3710 fluorescence intensity (a.u.).
Consider “CTTTTACATTTCAATAATATAATTCATAAATTTTAATGTTCGGAGTCACCTAGTGCAG”, for which the binding signal is 3200 fluorescence intensity (a.u.).
“ACCAACACAAATAGACAAACTGAATTTTGGAAATTTGGGTCGGAGTCACCTAGTGCAG”: the binding signal is 14000 fluorescence intensity (a.u.).
For “AATATAATTATTTATACTTCATAGATTTCATGTTCTTCTGCGGAGTCACCTAGTGCAG”, the binding signal was 24500 fluorescence intensity (a.u.).
Next, “TCTTAATGAACATTACATAATAGTACAATTGTAAAGTCTTCGGAGTCACCTAGTGCAG”: 3750 fluorescence intensity (a.u.).
For “CATAACCATGACACGACATGATTATTTCGAGCAGAGGCTGCGGAGTCACCTAGTGCAG”, the binding signal was 16400 fluorescence intensity (a.u.).
Next, “CAATCCATAATTACATACATAACTAATTATATATATGGATCGGAGTCACCTAGTGCAG”: 14800 fluorescence intensity (a.u.).
With “TACCCACTCTAATTGGCCCTTTCAATTTTGGCCCATGAGCCGGAGTCACCTAGTGCAG” the figure was 15300 fluorescence intensity (a.u.); with “TAAATTGGCTATAGATGATTTGTAGTTAGTAGATGGCTATCGGAGTCACCTAGTGCAG”, 38000 fluorescence intensity (a.u.).
With “CACTGCAAATTAGATCTATATATAGTGAAACATTGTGAGACGGAGTCACCTAGTGCAG” the figure was 6780 fluorescence intensity (a.u.); with “GGAGGAGGAGGTGGTGGTGGTGGTGAAGCCGCGGAGGTGCCGGAGTCACCTAGTGCAG”, 4940 fluorescence intensity (a.u.).
As for “CAACAAAATCAGCCAGATTAAACTGCACGAATTACGTACGCGGAGTCACCTAGTGCAG”, the binding signal was 5950 fluorescence intensity (a.u.).
“ACAGCCAATCAGAATAGGACACATCACCCAGTCTAAAACTCGGAGTCACCTAGTGCAG”: the binding signal is 16500 fluorescence intensity (a.u.).
With “ACTTATAAAACTAATTATATAAATAAAAGCTAATTCGGCGCGGAGTCACCTAGTGCAG” the figure was 4700 fluorescence intensity (a.u.).
For the sequence “TATTTTCCCAATTTAAAAGTAATAGATAGTTAGAATTACACGGAGTCACCTAGTGCAG”, the binding signal was 3480 fluorescence intensity (a.u.).
Next, “TGCAGGTGATTGCAGTTAACACAACCAGTCGAGCGCATTACGGAGTCACCTAGTGCAG”: 30300 fluorescence intensity (a.u.); “CAACATAACTACTCTAATATATCAATTTATGTAGATAATGCGGAGTCACCTAGTGCAG”: 3320 fluorescence intensity (a.u.).
Turning to “CCTCATTGATATGTACTACTGGAATCAAGCAGCGTTGTGGCGGAGTCACCTAGTGCAG”, the binding signal was 4350 fluorescence intensity (a.u.).
With “GATAATTTGTTATAGATCCCTGGTCCTTAGTTCTAACGTTCGGAGTCACCTAGTGCAG” the figure was 31600 fluorescence intensity (a.u.).
Take “GGTTGACAGGTAGGGCCCACGATGACTCAGCAGCCACGTACGGAGTCACCTAGTGCAG”: the binding signal is 17900 fluorescence intensity (a.u.).
Take “GGTAATGGGAGAGGCTGATGTGGCGTGAAATCTCTTGCGTCGGAGTCACCTAGTGCAG”: the binding signal is 5880 fluorescence intensity (a.u.).
Consider “TTGCTAATTTTGTTCCCTTGGAAACGGCCGAACAGTTTTGCGGAGTCACCTAGTGCAG”, for which the binding signal is 12900 fluorescence intensity (a.u.).
“CTCTACTCGCCAATTTTCCCTTCTTATTTTCGCTATTTCTCGGAGTCACCTAGTGCAG”: the binding signal is 3170 fluorescence intensity (a.u.).
For “ACCAAAACAATCTTAAATTTAAAGTTTGACTTTTAAGAACCGGAGTCACCTAGTGCAG”, the binding signal was 4460 fluorescence intensity (a.u.).
As to “TATGGTTTGATTAGATTTAAGAACTTGTTTTGGTCTCTATCGGAGTCACCTAGTGCAG”, the binding signal is 27400 fluorescence intensity (a.u.).
“TGAAATTTCTCTTCATTTTGTTTTAAATCCTGGACAGACACGGAGTCACCTAGTGCAG”: the binding signal was 3370 fluorescence intensity (a.u.).
On to “TTACTTGTAGATTGGTGCTATAATATCTGGTATTCAACCTCGGAGTCACCTAGTGCAG”, for which the binding signal is 5570 fluorescence intensity (a.u.).
With “ATAAATATTACTATAATTTATTACAAATCAAATTTGAATTCGGAGTCACCTAGTGCAG” the figure was 11100 fluorescence intensity (a.u.); with “TATACATGCAATCATTTCAAATCTCAATGGTTATATGACCCGGAGTCACCTAGTGCAG”, 4290 fluorescence intensity (a.u.); with “AGAAAATTAATGTTCAACAAACTCGTCACAAATTAAGTTTCGGAGTCACCTAGTGCAG”, 13600 fluorescence intensity (a.u.).
Turning to “ACTCTGATTAAAGTCAAACTGTTTTAAGTTTAACTAAGTTCGGAGTCACCTAGTGCAG”, the binding signal is 23800 fluorescence intensity (a.u.).
Next, “TCCGTGATTAGCCATAAGTGCTACAGTAACCCACATGTGCCGGAGTCACCTAGTGCAG”: 35800 fluorescence intensity (a.u.); “ATATATATATATATATGTATATGTATATGTATATGTATATCGGAGTCACCTAGTGCAG”: 3220 fluorescence intensity (a.u.).
